Source: publication PMC4336329 (PLoS ONE, 2015)
Among all 310,000 compounds or so, about 2,200 (0.71%) showed an effect of 50% or more. Effects have a minus sign here. The list shows a part of the results.

Biological target: human ether-à-go-go-related gene (hERG) potassium channel (human, UniProt Q12809)
Assay: primary screen, population patch clamp on CHO cells stably expressing hERG

Sequence of human ether-à-go-go-related gene (hERG) potassium channel (Q12809 whole entry, looked up): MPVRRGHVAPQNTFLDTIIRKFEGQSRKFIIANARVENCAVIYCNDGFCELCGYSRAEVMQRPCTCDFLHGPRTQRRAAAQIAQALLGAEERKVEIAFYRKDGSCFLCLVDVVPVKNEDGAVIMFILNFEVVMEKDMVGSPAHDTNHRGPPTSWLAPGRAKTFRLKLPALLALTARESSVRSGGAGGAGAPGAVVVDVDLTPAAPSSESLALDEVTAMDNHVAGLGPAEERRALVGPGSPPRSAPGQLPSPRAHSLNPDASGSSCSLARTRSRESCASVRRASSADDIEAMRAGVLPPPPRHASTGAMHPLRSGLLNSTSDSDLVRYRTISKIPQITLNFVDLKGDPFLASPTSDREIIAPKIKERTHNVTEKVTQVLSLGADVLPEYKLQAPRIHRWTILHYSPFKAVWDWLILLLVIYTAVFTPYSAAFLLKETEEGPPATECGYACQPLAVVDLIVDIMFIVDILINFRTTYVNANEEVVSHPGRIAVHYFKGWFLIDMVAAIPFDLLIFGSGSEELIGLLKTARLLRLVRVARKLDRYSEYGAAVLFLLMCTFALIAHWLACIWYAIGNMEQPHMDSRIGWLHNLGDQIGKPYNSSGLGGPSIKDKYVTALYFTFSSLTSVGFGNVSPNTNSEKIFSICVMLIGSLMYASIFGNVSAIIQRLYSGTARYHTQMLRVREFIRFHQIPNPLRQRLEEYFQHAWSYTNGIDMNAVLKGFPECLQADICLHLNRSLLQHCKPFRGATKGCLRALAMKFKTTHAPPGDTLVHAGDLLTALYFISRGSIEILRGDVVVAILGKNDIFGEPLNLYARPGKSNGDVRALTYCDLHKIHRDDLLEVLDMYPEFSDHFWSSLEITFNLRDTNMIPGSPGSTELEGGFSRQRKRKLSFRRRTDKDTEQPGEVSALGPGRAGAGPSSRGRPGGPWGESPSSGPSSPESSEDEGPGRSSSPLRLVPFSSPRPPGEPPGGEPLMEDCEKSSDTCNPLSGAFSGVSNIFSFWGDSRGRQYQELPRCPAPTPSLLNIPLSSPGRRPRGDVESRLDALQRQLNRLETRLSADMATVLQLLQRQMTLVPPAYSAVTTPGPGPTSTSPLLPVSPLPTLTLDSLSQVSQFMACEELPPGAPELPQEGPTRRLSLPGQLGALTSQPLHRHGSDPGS

Compared with `CC(Cc1ccccc1)/[N+]([O-])=C\c1ccc(C(F)(F)F)cc1` (stereo not drawn), `O=C(Cc1ccccc1)NCC(=O)N/N=C/c1ccc(Cl)cc1` is higher in “hERG current change (%, negative = inhibition) at 1uM” value: 0.398% for the first, 5.64% for the second.

First: CCC(=Nc1ccc(OC)cc1OC)c1c(O)n(C)c(=O)n(C)c1=O
Second: COc1ccc(OC)c(-n2c(O)c(C=Nc3c(C)n(C)n(-c4ccccc4)c3=O)c(=O)[nH]c2=S)c1
The “hERG current change (%, negative = inhibition) at 1uM” value of the first is lower: 3.57% for the first, 10.6% for the second.

Compared with `CC(=O)NCc1cn2c(C)csc2n1`, `COC(=O)c1sc(NC(=O)CSc2nnnn2C)nc1C` is higher in “hERG current change (%, negative = inhibition) at 1uM” value: 1.56% for the first, 14.7% for the second.

Compared with `O=C(CNc1cccc([N+](=O)[O-])c1)N/N=C/c1ccc(F)cc1`, `O=C(NCCc1ccccc1)/C(=C\c1ccc([N+](=O)[O-])cc1)NC(=O)c1ccccc1` is lower in “hERG current change (%, negative = inhibition) at 1uM” value: 9.66% for the first, 3.17% for the second.

Going from `N#CC(c1cccnc1)N1CCOCC1` (stereo not drawn) to `O=C(Nc1ccc2c(c1)OCO2)c1cccc(S(=O)(=O)N2CCOCC2)c1`, the “hERG current change (%, negative = inhibition) at 1uM” value falls from 10.1% to 7.59%.

Going from `O=C(NCc1ccccc1)C(c1ccc(F)cc1)N(Cc1ccco1)C(=O)c1ccccn1` (stereo not drawn) to `O=C(CSc1nc2c(sc3ccccc32)c(=O)n1-c1ccccc1)NCc1ccco1`, the “hERG current change (%, negative = inhibition) at 1uM” value rises from 2.13% to 3.96%.

Going from `CC[n+]1c(/C=C(\C)SC)sc2ccccc21.COS(=O)(=O)[O-]` to `CCN(CC(=O)Nc1cccc(OC)c1)C(=O)c1ccc(C)s1`, the “hERG current change (%, negative = inhibition) at 1uM” value falls from 9.66% to 5.16%.

First: CCn1c(SCC(=O)Nc2cccc(C(C)=O)c2)nnc1C(C)C
Second: CC(=O)c1cccc(NC(=O)CO/N=C2/CCCc3nonc32)c1
The “hERG current change (%, negative = inhibition) at 1uM” value of the first is higher: 11.1% for the first, 7.59% for the second.

First: C/C(CC(=O)Nc1ccccn1)=N\NC(=O)c1ccccc1O
Second: CN(C(=O)c1ccco1)c1ccccc1C(=O)O
The “hERG current change (%, negative = inhibition) at 1uM” value of the first is lower: 7.76% for the first, 12.4% for the second.

Compared with `Cc1ccc(S(=O)(=O)N2CCC(C(=O)Nc3ccncc3)CC2)cc1`, `O=C(NCc1ccncc1)C1CCN(S(=O)(=O)Cc2ccccc2)CC1` is lower in “hERG current change (%, negative = inhibition) at 1uM” value: 4.42% for the first, -1.64% for the second.

Compared with `CCn1cnc2sc(-c3ccccc3)cc2c1=O`, `Cc1cccc(N2C(=O)CC(N(O)c3ccccc3)C2=O)c1` (stereo not drawn) is higher in “hERG current change (%, negative = inhibition) at 1uM” value: 1.92% for the first, 12.2% for the second.

Compared with `Cn1nc(-c2ccc(C(=O)Nc3cccnc3)cc2)c2ccccc2c1=O`, `CC(C)(C)c1ccc(C(=O)NCc2nnc(SCC(=O)N3CCCc4ccccc43)n2-c2ccccc2)cc1` is higher in “hERG current change (%, negative = inhibition) at 1uM” value: 1.54% for the first, 5.23% for the second.

Going from `COC(=O)Cc1[nH]nc2c1C(c1ccc(O)c(OC)c1)C(C#N)=C(N)O2` (stereo not drawn) to `CCC(=O)c1ccc(O)c(CC=C(C)C)c1`, the “hERG current change (%, negative = inhibition) at 1uM” value falls from 16.7% to 11.5%.

First: Cc1cc(C)c(C(=O)NCC2CCCO2)c(C)c1C(=O)NCC1CCCO1 (stereo not drawn)
Second: Cc1c(CC(=O)O)c(=O)oc2cc3oc4c(c3cc12)CCCC4
The “hERG current change (%, negative = inhibition) at 1uM” value of the first is higher: 17.1% for the first, 15.3% for the second.

Compared with `O=S(=O)(Nc1ccc(-c2ccc3nncn3n2)cc1)c1cccs1`, `CCOc1ccc(NS(=O)(=O)c2ccc(NS(=O)(=O)c3cccs3)cc2)cc1` is lower in “hERG current change (%, negative = inhibition) at 1uM” value: 24% for the first, 11.4% for the second.

Going from `Cc1cc(OCC(=O)NC(Cc2ccc(Cl)cc2)C(=O)O)c2c3c(c(=O)oc2c1)CCCC3` (stereo not drawn) to `Cc1ccc(S(=O)(=O)Nc2cc3c4c(c2)CCC(=O)N4CCC3)cc1`, the “hERG current change (%, negative = inhibition) at 1uM” value falls from 16% to 12.3%.

Going from `Cc1ccc(-n2c(SCC(=O)O)nc3c(sc(=S)n3-c3ccc(C)c(C)c3)c2=O)cc1` to `Cc1cc(C)n(-c2ccc(F)cc2)c(=O)c1C#N`, the “hERG current change (%, negative = inhibition) at 1uM” value rises from 10.1% to 19.5%.

First: COCCn1c(C)cc(C2=NNC(=Nc3ccc(Cl)cc3Cl)SC2)c1C
Second: COCCn1c(N)c(Sc2ccccc2[N+](=O)[O-])c(=O)[nH]c1=O
The “hERG current change (%, negative = inhibition) at 1uM” value of the first is higher: 7.13% for the first, 0.355% for the second.

Compared with `COc1ccccc1N(CC(=O)NC(C)(C)C)C(=O)c1ccc(Cl)nc1`, `COc1ccccc1/C=C/C(=O)NCC(=O)N=Nc1c(O)[nH]c2ccccc12` is lower in “hERG current change (%, negative = inhibition) at 1uM” value: 9.74% for the first, 9.17% for the second.

Compared with `CCOCCCNC(=O)c1cn(CC)c2ccc(S(=O)(=O)N3CCCC3)cc2c1=O`, `Cc1cccnc1NC(=O)C1CCCN(S(=O)(=O)c2ccc3c(c2)oc(=O)n3C)C1` (stereo not drawn) is lower in “hERG current change (%, negative = inhibition) at 1uM” value: 15% for the first, 8.11% for the second.

First: CC(=O)N1CCOc2ccc(S(=O)(=O)N(C)c3cccc(C)c3)cc21
Second: COc1nnc(-c2ccc(C)c(S(=O)(=O)N(C)C)c2)c2ccccc12
The “hERG current change (%, negative = inhibition) at 1uM” value of the first is higher: 14.4% for the first, -53.6% for the second.

Compared with `CCOCCCNCC(O)c1ccccc1.O=C(O)C(=O)O` (stereo not drawn), `CSCCC(NC(=O)COc1ccccc1)C(=O)OCC(=O)c1ccccc1` (stereo not drawn) is higher in “hERG current change (%, negative = inhibition) at 1uM” value: 5.08% for the first, 21.3% for the second.

Compared with `CCn1c(=O)n(CC)c2cc(N3CCCC3)c(NC(=O)c3ccccc3)cc21`, `CCC(=O)c1ccc(OCC(=O)Nc2ccc(N3CCCCC3)cc2)cc1` is higher in “hERG current change (%, negative = inhibition) at 1uM” value: 8.27% for the first, 14.4% for the second.

Going from `CCn1cc(CN2CCC(n3nccc3NC(=O)Cc3ccccc3)CC2)cn1` to `Cn1cccc1C(=O)NC(=O)CSc1nnc(C2CC2)n1-c1ccccc1`, the “hERG current change (%, negative = inhibition) at 1uM” value rises from 8.12% to 8.24%.

Going from `O=C(COC(=O)Cc1ccccc1[N+](=O)[O-])NC1CCCC1` to `O=C(COc1cccnc1[N+](=O)[O-])N1CCc2ccccc2C1`, the “hERG current change (%, negative = inhibition) at 1uM” value rises from 4.18% to 7.49%.

Compared with `Cc1ccc(C(=O)CC2(O)C(=O)Nc3ccccc32)s1` (stereo not drawn), `CN1C(=O)C(O)(CC(=O)/C=C/C=C/c2ccccc2)c2ccccc21` (stereo not drawn) is lower in “hERG current change (%, negative = inhibition) at 1uM” value: 18% for the first, 5.72% for the second.

Compared with `O=C(CS(=O)(=O)Cc1ccccc1)N1CCN(C(=O)c2ccco2)CC1`, `O=C(c1ccc(NC2=NC3CS(=O)(=O)CC3S2)cc1)N1CCN(C(=O)c2ccco2)CC1` (stereo not drawn) is higher in “hERG current change (%, negative = inhibition) at 1uM” value: -20.1% for the first, 14.4% for the second.

Going from `O=C(Nc1ccc2c(c1)OCCO2)C1CCN(c2ncccn2)CC1` to `Cc1cc(C(=O)N2CCN(c3ncccn3)CC2)cs1`, the “hERG current change (%, negative = inhibition) at 1uM” value falls from 19.6% to -10.3%.

Going from `O=C(O)C(=O)O.O=C(c1ccc(F)cc1)N1CCN(C2CCCCC2)CC1` to `CCN(CC)C(=O)N1CCC(NC(=O)c2ccc(C(C)(C)C)cc2)CC1`, the “hERG current change (%, negative = inhibition) at 1uM” value rises from -34.4% to 8.5%.

Compared with `COc1cccc(-n2c(SCC(=O)NC3CCCCC3)nc3n[nH]c(C)c3c2=N)c1`, `COc1cccc(CC(=O)NC2CCSc3ccccc32)c1` (stereo not drawn) is higher in “hERG current change (%, negative = inhibition) at 1uM” value: 10.9% for the first, 16.2% for the second.

First: Cc1nn(C)c(Sc2ccccc2N)c1[N+](=O)[O-]
Second: Cc1c(NC=C(C#N)C#N)c(=O)n(-c2ccccc2)n1C
The “hERG current change (%, negative = inhibition) at 1uM” value of the first is lower: 10.8% for the first, 25.3% for the second.

First: CCOc1ccc(C(=O)OC2CCCN(C)C2)cc1.Cl (stereo not drawn)
Second: CCN(CC)C(=O)C1CCCN(Cc2ccc(N(C)C)cc2)C1 (stereo not drawn)
The “hERG current change (%, negative = inhibition) at 1uM” value of the first is higher: -1.27% for the first, -2.31% for the second.

First: NS(=O)(=O)c1cccc(NS(=O)(=O)c2ccc3ccccc3c2)c1
Second: COc1ccc(S(=O)(=O)Nc2ccc(S(=O)(=O)Nc3nc(C)cc(C)n3)cc2)cc1OC
The “hERG current change (%, negative = inhibition) at 1uM” value of the first is higher: 10.1% for the first, 8.07% for the second.

First: C/C(=C(\C#N)C(=O)NC1CCCCC1)N(C)C
Second: O=C(Cc1cccs1)N(CC1CCCO1)C1(C(=O)NC2CCCC2)CCCCC1 (stereo not drawn)
The “hERG current change (%, negative = inhibition) at 1uM” value of the first is higher: 11% for the first, 7.33% for the second.

First: CCOC(=O)C1CCN(C(=O)CSC2=NCCS2)CC1
Second: COc1ccc(S(=O)(=O)N(C)CC(=O)N2CCC(C(N)=O)CC2)cc1Cl
The “hERG current change (%, negative = inhibition) at 1uM” value of the first is higher: 8.93% for the first, 0.633% for the second.

First: O=C(CSc1ccccn1)N1CCN(c2ccc(Cl)cc2)CC1
Second: CC(C)c1ccc(NC(=O)COC(=O)COc2ccccc2)cc1
The “hERG current change (%, negative = inhibition) at 1uM” value of the first is higher: 4.73% for the first, 4.59% for the second.

Going from `c1ccc(-c2nnc(-c3ccncc3)o2)cc1` to `Fc1ccc(C2C3=C(Nc4ncnn42)c2ccccc2OC3c2ccncc2)cc1` (stereo not drawn), the “hERG current change (%, negative = inhibition) at 1uM” value falls from 3.01% to -0.151%.

First: Cc1cc2oc(=O)cc(CSc3nnc(-c4cccs4)o3)c2cc1C(C)C
Second: CC(C(=O)Nc1ccc(O)cc1C(=O)O)N1C(=O)/C(=C\c2cccs2)SC1=S (stereo not drawn)
The “hERG current change (%, negative = inhibition) at 1uM” value of the first is lower: 1.74% for the first, 14.9% for the second.

Compared with `COc1ccc(/C=C2\Sc3ccc(C(=O)NC4CC4)cc3N(C)C2=O)cc1OC`, `COC(=O)CC1SC(=O)NC1=Nc1ccc(O)cc1` (stereo not drawn) is higher in “hERG current change (%, negative = inhibition) at 1uM” value: -0.0644% for the first, 12.9% for the second.

First: COc1ccc(S(=O)(=O)Nc2nnc(C(C)C)s2)cc1
Second: NS(=O)(=O)c1ccc(CCN=Cc2ccccc2O)cc1
The “hERG current change (%, negative = inhibition) at 1uM” value of the first is lower: -3.29% for the first, 9.29% for the second.

First: COC1OC(CO)C(O)C(O)C1O (stereo not drawn)
Second: CCOC(=O)c1c(C)[nH]c(C)c1S(=O)(=O)N(C)CC(=O)Nc1cccc(F)c1
The “hERG current change (%, negative = inhibition) at 1uM” value of the first is lower: 2.17% for the first, 8.28% for the second.

First: CCc1nn(CC(=O)NCCCN2CCN(C)CC2)c(=O)c2cc3sc(C)cc3n12
Second: O=C(O)CCCCCNC(=O)Nc1ccc2c(c1)OCCO2
The “hERG current change (%, negative = inhibition) at 1uM” value of the first is lower: 12.2% for the first, 17.5% for the second.

Compared with `CN1c2ccccc2N(C)C1(C)c1ccccc1`, `CC(O)(C#CCN1CCCCC1)c1ccccc1` (stereo not drawn) is higher in “hERG current change (%, negative = inhibition) at 1uM” value: 3.14% for the first, 10.4% for the second.

First: CCc1cccc(Nc2c3c(nc4ncnn24)CCC3)c1
Second: CCOC(=O)C1(Cc2ccc(OC)cc2)CCN(C(=O)C2=CCCC2)CC1
The “hERG current change (%, negative = inhibition) at 1uM” value of the first is higher: 16.1% for the first, 4.08% for the second.

First: CC(=O)NC(NC(=S)Nc1ccc(C)cc1C)C(Cl)(Cl)Cl (stereo not drawn)
Second: CCOC(=O)CSc1nc(N)cc(=O)[nH]1
The “hERG current change (%, negative = inhibition) at 1uM” value of the first is higher: 8.31% for the first, -1.24% for the second.
